Laboratory results as given in publication PMC12136788.
The other results are listed elsewhere or left out.

T1: UNK ZnF1-6 (called full-length) (human, UniProt Q9C0B0 30-357)
T1 sequence: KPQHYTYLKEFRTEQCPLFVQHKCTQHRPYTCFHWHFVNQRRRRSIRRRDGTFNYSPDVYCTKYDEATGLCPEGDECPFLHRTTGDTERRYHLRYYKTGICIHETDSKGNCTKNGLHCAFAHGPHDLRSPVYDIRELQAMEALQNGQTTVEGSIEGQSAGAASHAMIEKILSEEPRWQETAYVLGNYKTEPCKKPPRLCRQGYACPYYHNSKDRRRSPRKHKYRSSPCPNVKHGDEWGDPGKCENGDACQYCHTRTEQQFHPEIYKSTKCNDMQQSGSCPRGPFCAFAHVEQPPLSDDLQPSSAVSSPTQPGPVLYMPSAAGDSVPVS

B1: chr2:61188134:61188237:-|CDS|ENSG00000115464|unk|total|mutant (ssRNA)
RNA: GGGAGUUCUACAGUCCGACGAUCAUCUCUCAGUUGUGGCCAUUCCAGAGGACUCUUCCGUCAUAUGCAGCAACAUGACAUUUCCGAUACCCUGUGCCGGACCAUUGAAUCUACAAUCCAUGUCGUCACAAGGAUAUCUGGCAACAACAGAGGAUUGAGCAUCA
B2: chr1:22530103:22530204:+|3pUTR|ENSG00000184677|msi1|total|mutant (ssRNA)
RNA: GGGAGUUCUACAGUCCGACGAUCCAUGUACCGAGUGGGCAGGCGGUUCCAGGGAGACAAGCAGCAUGUUAUUAAAUUGGGCCCCGGCAGUUGGACGAUAAUGGAGAAAAAGCAGGGAUGCUAUAAUGAGUCCUCCCCAAGGGUCAACAGAGGAUUGAGCAUCA
B3: chr19:13097725:13097826:+|3pUTR|ENSG00000008441|msi1|total|mutant (ssRNA)
RNA: GGGAGUUCUACAGUCCGACGAUCUGAGCCAGACGCCAACUUGACCCUCACCAGCAUUAUCAGGAGCGCGCUCAGCAAGUUGGCCGUUUCCUCCCCCCUUUCCCGGCGCCCCUCCCGCCCCCAUUCAACAUCUCUCAUCCUAUCCAACAGAGGAUUGAGCAUCA
B4: chr7:44624349:44624495:+|CDS|ENSG00000105953|unk|total|mutant (ssRNA)
RNA: GGGAGUUCUACAGUCCGACGAUCAGGCCAUUGACGGCUUCCCAGACUGUUAAGACAUUUUCACAAAACAGACCAGCAGCAGCCCGGACAUUUCAACAGAUUCGGUGCUAUUCUGCACCUGUUGCUGCUGAGCCCUUUCUCAGUCAACAGAGGAUUGAGCAUCA
B5: chr1:225491636:225491737:-|3pUTR|ENSG00000154380|msi1|total|mutant (ssRNA)
RNA: GGGAGUUCUACAGUCCGACGAUCGUACUUUGAAUUCCACCGGAAAAAGCACUCAGAAGAAAAAGUCUACAUUGGCCCGUGUUCCGAUUGAGAGUUAAUUUUCCCAUCAAGUCCAAAAGUUUCCAUCCAAGUCUACCGAAACUGCAACAGAGGAUUGAGCAUCA
B6: chr1:24840999:24841100:+|3pUTR|ENSG00000169504|msi1|total|mutant (ssRNA)
RNA: GGGAGUUCUACAGUCCGACGAUCGCUACUCCUUCCUGCCGAGCAGAAAUUGUAUUUUGCACGAACAUGCAGUUAUUGAAGAUCCGGAUCAAGGACCGACAAGGUACCGCCGUUAUCUUAAAAUAUACACUCCUAAGCAGUAUUCAACAGAGGAUUGAGCAUCA
B7: chr3:10940499:10940600:+|3pUTR|ENSG00000132164|unk|FALSE|unique (ssRNA)
RNA: GGGAGUUCUACAGUCCGACGAUCGGGGAGGGCAAUGUGGGGGCAGGGGAACAUGUCAUUGUGAUGACUUUUUUGAUAUUCAUUAGAAACAAUACAUCCUUUCUGAGAUAUUUACAGUAUUAUUAAAAAAUGAAAAAGGUUGUACAACAGAGGAUUGAGCAUCA
B8: chr1:62648186:62648303:-|CDS|ENSG00000116641|unk|FALSE|unique (ssRNA)
RNA: GGGAGUUCUACAGUCCGACGAUCGAUGACCUUAAAAGACGUUCAAUGUCAAUAGAUGAUACCCCAAGGGGUAGCUGGGCCUGUAGUAUCUUUGACUUGAAAAAUUCACUUCCUGAUGCUUUGCUUCCCAAUUUACUUGAUCGACAACAGAGGAUUGAGCAUCA
B9: ENSG00000164929:stop:overlap|stop_codon|ENSG00000164929|stop_codon|NA|stop_codon (ssRNA)
RNA: GGGAGUUCUACAGUCCGACGAUCUAACAGAUAGCAUCCAACAGAUGGACAGAAGUCGAAGAAUCACAAAGAACUGUGUCAACUAGCAGAGAGUCCAAGCAGAAGGGCAGAUGGACUUCUUCAGUGUCCUUCACGGCACUGGAUCAACAGAGGAUUGAGCAUCA
B10: chr6:105098323:105098438:-|3pUTR|ENSG00000112276|msi1|total|mutant (ssRNA)
RNA: GGGAGUUCUACAGUCCGACGAUCUAUCAGUGUCUCAAUGUGAAGAUUGUAACCUCAAGAUCCGGAAUCUUAAAAGAGCCACUCCGCCUGAAUGGGAAACGUGAGACUAUUUUUAAACACACACCUCUAAGGAAGAAGCCUCCCCAACAGAGGAUUGAGCAUCA
B11: chr8:143915506:143915607:-|3pUTR|ENSG00000178209|msi1|FALSE|unique (ssRNA)
RNA: GGGAGUUCUACAGUCCGACGAUCCCCCACACUCACUCCUGAGACCCCUGGCCUCCGGCGUCAGCCUCCAGCCUCUGUUCCCCUAGUAAGUGCCUUCCAUGUCGGCCUCUAACCCCAGGCCCCGAGGACCCAGACCCAGUGGGGCAACAGAGGAUUGAGCAUCA
B12: chr15:64957256:64957357:+|3pUTR|ENSG00000166839|msi1|total|mutant (ssRNA)
RNA: GGGAGUUCUACAGUCCGACGAUCGCUGGAAAAUUGAAACAUAAUUUCACAAUUAUUCCUUUUUCCACCUUAAAUAAUAAGAGCCGAAUACUUUCUGUGUUUUUAUCUUAUACACAUGAAUAAAUGCUAUGGCUUAUCACAGUUCAACAGAGGAUUGAGCAUCA
B13: chr4:2179307:2179465:-|CDS|ENSG00000130997|control|control|control (ssRNA)
RNA: GGGAGUUCUACAGUCCGACGAUCCAGAAUUGCUGCAUGGCUUAUAGAUCCUAGUGAUGCCACACCCUCUUUUGAAGAUUUAGUAGAAAAAUACUGUGAAAAAUCCAUUACAGUUAAAGUGAACAGCACAUAUGGAAAUUCCUCCAACAGAGGAUUGAGCAUCA
B14: ENSG00000110492:stop:overlap|stop_codon|ENSG00000110492|stop_codon|NA|stop_codon (ssRNA)
RNA: GGGAGUUCUACAGUCCGACGAUCAGCCCUGCACCCCCAAGACCAAAGCAAAGGCCAAAGCCAAGAAAGGGAAGGGAAAGGACUAGACGCCAAGCCUGGAUGCCAAGGAGCCCCUGGUGUCACAUGGGGCCUGGCCCACGCCCUCAACAGAGGAUUGAGCAUCA
B15: chr4:73571549:73576234:-|three_prime_utr|ENSG00000169435|control|control|control (ssRNA)
RNA: GGGAGUUCUACAGUCCGACGAUCUUGAUGAAUGCAUAAGUUCUGUACUUGCAUUUAUACGAACAUAUAUGAGACUUGAAUCGUAGAAAAUUGAAUGUCAAAAAAAGCUCAUUUCUUUUUGAAGUGAUGAGGUUAAUUAGGGUUCAACAGAGGAUUGAGCAUCA
B16: chr20:5938399:5938502:-|3pUTR|ENSG00000089195|unk|total|mutant (ssRNA)
RNA: GGGAGUUCUACAGUCCGACGAUCGUCUGACUCUUAACCCUUUUGAGAAUUGCUCUGAAUUUUGUUCUCAGGCAUUAUACAGUCCGUAAUUAAACUUUAAAUGCCAUUACUACUUGUUUUUUCAUAUCCCAAGAAUAAGAACAUCAACAGAGGAUUGAGCAUCA
B17: chr15:40903593:40903694:+|3pUTR|ENSG00000104142|msi1|total|mutant (ssRNA)
RNA: GGGAGUUCUACAGUCCGACGAUCCAGCCGAGGCCCUUCACCUGGAGAAGUCAGAAAUCUGACCCAAUUCCACCCCCUGCCUCCCGCACCUCUUCUGUCCCUGUCAUUCCCCACACACGUCCUGUUCACCUCGAGAGAGAGAGACAACAGAGGAUUGAGCAUCA
B18: ENSG00000118515:stop:overlap|stop_codon|ENSG00000118515|stop_codon|NA|stop_codon (ssRNA)
RNA: GGGAGUUCUACAGUCCGACGAUCCUUCUGAGGAAGACCUAGAAUUGUGGUCUUUGUUAGCUCAUUAUGUUAUUUUUUUAAAGUAGGCUUUAUAUUUUAGAGCAGCUUUAAGUUCACAGCAACAUUGAGCAGAAGGUACAGAGACAACAGAGGAUUGAGCAUCA
B19: chr9:34635388:34635489:-|3pUTR|ENSG00000147955|msi1|FALSE|unique (ssRNA)
RNA: GGGAGUUCUACAGUCCGACGAUCGGGAUAUCCAUGCUUAUGUAUCCAAACACAGAGACCCAUGGGAACAAAUGAGACACAUAUAGAUACUGAGACCUGUGUGUACAGUAGGACCAUGCACUCACACCCAUCUGGAGAGGGAGCCAACAGAGGAUUGAGCAUCA
B20: chr13:29511929:29512034:-|3pUTR|ENSG00000139514|msi1_unk|total|mutant (ssRNA)
RNA: GGGAGUUCUACAGUCCGACGAUCUAUCAUAUCCCUCAUUUCUUUCCCUGAAAUAAAAAUACACACAAGCAAAAAAAAAAUGACCGUUUCACAUCUCUCCGUUCCCUUGCCCAAACAAGAAUAUUCUCCGUUCCACUGGCCAGGCAACAGAGGAUUGAGCAUCA
B21: chr8:133458587:133458688:-|3pUTR|ENSG00000008513|msi1|total|mutant (ssRNA)
RNA: GGGAGUUCUACAGUCCGACGAUCAUGAAACAAAAGCCCUUACUUGGGAAAAGGGACCCCCACCAGCGGCCCUGCUUGCUCCGCCGCUGGGAACAUCUUUUCUGGUUUCCUGAGCCAGCACCUGAAUUGCAACGAAGCUCUGAGCAACAGAGGAUUGAGCAUCA
B22: chr1:83882962:83883136:-|CDS|ENSG00000137941|control|control|control (ssRNA)
RNA: GGGAGUUCUACAGUCCGACGAUCGACUCCUUUGCAGCUCCAGUGUUGCCAGCGCCUAGUGGAGCUUUGUAAACAGUGCCUGCUAGUGGUUUACAAAUAUGCAACUGACAAAAGAGGAUCACUUUCAGGCAUUGGUCCUGACUGCAACAGAGGAUUGAGCAUCA

These binders were tested against T1, UNK ZnF1-6 (called full-length) (assay: nsRBNS (natural sequence RNA bind-n-seq); RBNS binding buffer (assumed for nsRBNS): 25 mM Tris pH 7.5, 150 mM KCl, 3 mM MgCl2, 0.01% Triton X-100, 500 ug/ml BSA, 20 U/ml SUPERase-In, 4 C; UNK is unkempt and MSI1 is Musashi-1; names of the RNAs are library labels; protein concentration not given here; high values mean tight binding).
In the case of B1, the binding signal is reported as 0.515 enrichment R. With B2 the binding signal was 1.1 enrichment R. For B3, the binding signal was 0.936 enrichment R. In the case of B4, the binding signal is reported as 0.451 enrichment R. B5 was tested, and the binding signal was 0.457 enrichment R. B6 was tested, and the binding signal was 0.531 enrichment R. With B7 the binding signal was 1.27 enrichment R. B8 was tested, and the binding signal was 0.414 enrichment R. Work on B9 yielded a binding signal of 0.422 enrichment R. B10 was tested, and the binding signal was 0.46 enrichment R. With B11 the binding signal was 0.769 enrichment R. B12 gave a binding signal of 0.676 enrichment R. Binder B13 has a binding signal of 0.647 enrichment R. With B14 the binding signal was 0.725 enrichment R. Binder B15 has a binding signal of 0.592 enrichment R. B16 showed a binding signal of 0.964 enrichment R. B17 was tested, and the binding signal was 0.801 enrichment R. B18 gave a binding signal of 1.11 enrichment R. B19 showed a binding signal of 0.761 enrichment R. B20 was tested, and the binding signal was 0.604 enrichment R. B21 showed a binding signal of 0.484 enrichment R. Work on B22 yielded a binding signal of 0.655 enrichment R.
